The campaign covered roughly 220,000 compounds. About 16,000 (7.3%) were called active. Inconclusive means that the source gave no clear call. Such entries were picked first, then a sample of the others. Calls follow the shape of the dose curve; as a rule, active = well fitted inhibition curve with a large enough effect (not every such curve was filed as active); inconclusive = small, poorly fitted or top-dose-only effect, or another doubt; inactive = no such curve, though single readings can be large or run the other way. Potencies of inconclusive entries are left out as doubtful fits.
What follows are compounds tested against Aldehyde dehydrogenase 1A1 (Homo sapiens) (UniProt P00352) (assay: qHTS Assay for Inhibitors of Aldehyde Dehydrogenase 1 (ALDH1A1)). Details: Purified ALDH1A1, NADH fluorescence, propionaldehyde substrate; series mostly up to 75.3 µM; activity, negative = inhibition: at the top concentration.
UniProt P00352, sequence (P00352 whole entry, looked up): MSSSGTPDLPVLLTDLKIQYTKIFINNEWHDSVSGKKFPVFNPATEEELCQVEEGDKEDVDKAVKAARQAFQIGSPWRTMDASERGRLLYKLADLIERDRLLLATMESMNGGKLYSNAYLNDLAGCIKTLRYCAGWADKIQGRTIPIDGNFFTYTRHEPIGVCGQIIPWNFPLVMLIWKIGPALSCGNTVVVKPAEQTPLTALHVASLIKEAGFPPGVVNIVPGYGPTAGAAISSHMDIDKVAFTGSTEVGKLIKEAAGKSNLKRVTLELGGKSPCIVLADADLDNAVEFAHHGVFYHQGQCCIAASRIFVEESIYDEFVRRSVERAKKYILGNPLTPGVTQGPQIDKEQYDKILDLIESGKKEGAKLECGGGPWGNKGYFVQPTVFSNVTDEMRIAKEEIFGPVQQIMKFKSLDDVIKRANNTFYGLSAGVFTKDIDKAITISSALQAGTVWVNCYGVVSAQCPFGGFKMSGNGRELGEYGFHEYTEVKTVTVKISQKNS
`O=C(O)/C=C/C(=O)Nc1ccc(F)cc1F` was tested, and the Potency was active: 25.1 µM.
In the case of `Cc1coc(C)c1C(=O)CC1(O)C(=O)N(C)c2ccc(Cl)cc21` (stereo unspecified), the Potency is reported as inconclusive [inhibitor, single point].
For `O=[N+]([O-])c1ccc(N2CCCCCC2)c([N+](=O)[O-])c1`, the “activity, negative = inhibition” value was inactive: -21.2%.
In the case of `CC(C)Nc1nnc(SCc2cc(=O)n3ccsc3n2)s1`, the Potency is reported as inconclusive [inhibitor, single point].
`O=C(O)CC1C(=O)NCCN1CCCc1ccccc1` (stereo unspecified) was tested, and the Potency was inconclusive [inhibitor, single point].
With `COc1ccc(S(=O)CC(=O)Nc2ccc(Cl)cc2Cl)cc1` (stereo unspecified) the “activity, negative = inhibition” value was inactive: 0.529%.
`Cc1ccc(-n2ncc(C(=O)N3CCc4ccccc4C3)c2NC(=O)c2ccco2)cc1C` was tested, and the Potency was active: 1 µM.
For `COc1cc(Cn2c(=O)oc3ccc(C)cc32)ccc1OC(C)C`, the “activity, negative = inhibition” value was inactive: 9.61%.
`Cc1ccc(O)c(CCc2ccc(O)cc2)n1` was tested, and the Potency was inconclusive [inhibitor, single point].
In the case of `c1ccc(-c2csc(-n3cnnn3)n2)cc1`, the “activity, negative = inhibition” value is reported as inactive: -4.94%.
For `CC(=O)c1sc(-c2ccc(Cl)cc2)nc1C`, the “activity, negative = inhibition” value was inactive: 3%.
For `S=c1nc(-c2csc3c2CCCC3)[nH][nH]1`, the Potency was active: 11.2 µM.
`Oc1ccc(Br)cc1C=Nc1cccn2cc(-c3ccccc3)nc12` was tested, and the Potency was inconclusive [inhibitor, partial curve].
In the case of `COc1cc(NC(=O)COC(=O)Cc2ccc(-c3ccccc3)cc2)cc(OC)c1`, the Potency is reported as inconclusive [inhibitor, partial curve, poor fit].
In the case of `COc1ccc2nc(/N=C(\N)NC(=O)Nc3ccccc3)nc(C)c2c1`, the Potency is reported as inconclusive [inhibitor, single point].
In the case of `c1ccc(C2CC(c3cccs3)Nc3nnnn32)cc1` (stereo unspecified), the Potency is reported as inconclusive [inhibitor, single point].
With `Cc1ccc(S(=O)(=O)NCCC(=O)O)cc1` the “activity, negative = inhibition” value was inactive: 13.9%.
For `Cc1cccc(NC(=O)COc2cccc3c2CCN(Cc2ccccc2)C3=O)c1C`, the Potency was inconclusive [inhibitor, single point].
With `CCN(CC)CCCC(C)n1c(-c2ccccc2)nc2c(NCCO)nc(C)nc21` (stereo unspecified) the Potency was inconclusive [inhibitor, partial curve].
For `O=C(c1ccc([N+](=O)[O-])c(CS(=O)(=O)c2ccc(Cl)cc2)c1)N1CCCC1`, the Potency was inconclusive [inhibitor, single point].
With `Cc1ccc(CN2CCc3c(OCC(=O)Nc4cc(C)ccc4C)cccc3C2=O)cc1` the Potency was inconclusive [inhibitor, partial curve].
For `COc1ccc(Cc2nnc(NC(=O)C3CCCO3)s2)cc1OC` (stereo unspecified), the Potency was inconclusive [inhibitor, single point].
With `CC#CCN1c2ccccc2[C@]23C[C@@H](C(=O)OC)N(S(=O)(=O)c4ccc(C(F)(F)F)cc4)C2=NC(C(=O)OC)=C(C(=O)OC)[C@H]13` the activity, negative = inhibition was inactive: 1.81% [at 13.5 µM].
For `CCCCn1c(CN2CCN(C(=O)OCC)CC2)nc2c1c(=O)[nH]c(=O)n2C`, the Potency was inconclusive [inhibitor, partial curve].
In the case of `Oc1ccc(/C=N/NC2=NCCCCC2)cc1`, the Potency is reported as active: 17.8 µM.
In the case of `Cc1ccc(OCC(=O)N/N=C\c2c(C)[nH]n(-c3ccccc3)c2=O)c([N+](=O)[O-])c1`, the “activity, negative = inhibition” value is reported as inactive: 1.85%.
`O=C(c1ccccc1)N1CCN(CC(O)COCC2CC=CCC2)CC1` (stereo unspecified) was tested, and the Potency was inconclusive [inhibitor, single point].
For `CCOC(=O)C1CCN(C(=O)c2cn(C)c(=O)c3cc(OC)c(OC)cc23)CC1`, the Potency was inconclusive [inhibitor, single point].
For `CN(C)C(=O)c1cn(-c2ccccc2)nc1-c1cccc([N+](=O)[O-])c1`, the Potency was active: 8.91 µM.
In the case of `COc1ccc(CNC(=O)CN(Cc2cccs2)C(=O)CCC(=O)Nc2ccccn2)cc1`, the Potency is reported as inconclusive [inhibitor, partial curve].
`CCC/C(=N\NC(=O)CNC(=O)/C=C/c1ccco1)c1ccccc1` was tested, and the “activity, negative = inhibition” value was inactive: -6.35%.
In the case of `CCS(=O)(=O)c1cc([N+](=O)[O-])c(Sc2ccccc2N)s1`, the Potency is reported as active: 3.55 µM.
For `CCOC(=O)N1CCN(C(=O)c2cn(CCOC)c(=O)c3c2c2ccccc2n3C)CC1`, the Potency was inconclusive [inhibitor, single point].
`CCOc1ccccc1NC(=O)Cn1nnc(C(=O)Nc2ccccc2Cl)c1N` was tested, and the “activity, negative = inhibition” value was inactive: 7.48%.
With `CC(CS(=O)(=O)c1cccc2cccnc12)N1CCCCC1` (stereo unspecified) the Potency was active: 20 µM.
For `Nc1nc(CN2CCN(C(=O)c3ccco3)CC2)nc(Nc2cccc(Cl)c2)n1`, the Potency was inconclusive [inhibitor, partial curve].
In the case of `Cc1cc(C(=O)N/N=C/c2ccc3c(c2)OCO3)c(C)o1`, the “activity, negative = inhibition” value is reported as inactive: 5.93%.
In the case of `N#Cc1cc2c(=O)n3ccccc3nc2n(-c2ccccc2Cl)c1=O`, the Potency is reported as inconclusive [inhibitor, partial curve].
In the case of `Cc1ccc(S(=O)(=O)N2CCCCC2)cc1C(=O)N1CCN(c2ccccn2)CC1`, the Potency is reported as inconclusive [inhibitor, single point].
For `O=C(CN1CCC(NC(=O)c2cccc(F)c2)CC1)NCc1ccccc1F`, the Potency was inconclusive [inhibitor, partial curve].
For `CCOC(=O)c1cnc2ccc(OC)cc2c1NCc1ccccc1`, the Potency was inconclusive [inhibitor, single point].
With `COc1ccc(NC(=O)COc2ccc(/C=N/NC(=O)c3cccnc3)cc2OC)cc1` the Potency was inconclusive [inhibitor, partial curve].
In the case of `CCn1c(CNC(=O)c2cccs2)n[nH]c1=S`, the Potency is reported as inconclusive [inhibitor, single point].
For `Cc1ccc2c(Cl)cc(Cl)c(OCC(=O)NC3CCS(=O)(=O)C3)c2n1` (stereo unspecified), the “activity, negative = inhibition” value was inactive: -12.2%.
For `CCCCc1nc2c(c3c1C[C@H](C)OC3)CN(C(=O)Cc1cccc(OC)c1)CC2`, the activity, negative = inhibition was inactive: 7.44% [at 13.5 µM].
In the case of `CN(C)CCCNC(=O)c1ccc(Cc2nc3ccccc3[nH]2)cc1`, the “activity, negative = inhibition” value is reported as inactive: 1.7%.
In the case of `COc1ccccc1C(=O)N/N=C(\C)c1ccc(NC(=O)C2CC2)cc1`, the “activity, negative = inhibition” value is reported as inactive: -9.16%.
For `CC(C)CSc1n[nH]c(=S)s1`, the Potency was active: 0.631 µM.
With `O=C(/C=C/c1cccc([N+](=O)[O-])c1)NCCSCc1ccco1` the Potency was active: 20 µM.
For `COc1ccc(-c2ccc(SCC(=O)N3CCOCC3)nn2)cc1OC`, the “activity, negative = inhibition” value was inactive: -2.48%.
In the case of `CCC1CCCCN1CCNS(=O)(=O)c1ccc2c(c1)CCN2C(C)=O` (stereo unspecified), the “activity, negative = inhibition” value is reported as inactive: 0.798%.
`C=CCS(=O)(=O)c1nc2ccccc2s1` was tested, and the Potency was active: 0.794 µM.
With `COc1ccc(C(=O)Nc2sc(C(=O)N(C)C)c(C)c2C#N)cc1[N+](=O)[O-]` the Potency was inconclusive [inhibitor, partial curve, poor fit].
With `Cc1ccc(S(=O)(=O)N/N=C\c2cccnc2)cc1` the Potency was inconclusive [inhibitor, full curve, poor fit].
For `CCOc1cc2oc(=O)c3c(c2cc1Cl)CCC3`, the Potency was inconclusive [inhibitor, full curve].
`Cc1ccc(C)n1-c1ccc(C(=O)N2CCOCC2)cc1` was tested, and the Potency was inconclusive [inhibitor, single point].
With `Cc1ccc(NC(=S)NC2CCN(Cc3ccccc3)CC2)cc1` the Potency was inconclusive [inhibitor, single point].
For `Cc1nc2sc3c(c2c(=O)o1)CCCC3`, the “activity, negative = inhibition” value was inactive: 0.764%.
For `COc1ccc(NC(=O)C2C3C=CC(C3)C2C(=O)NCc2ccco2)c(OC)c1` (stereo unspecified), the Potency was inconclusive [inhibitor, single point].
In the case of `CCN(CC(=O)NCc1cccs1)C(=O)c1ccccc1F`, the Potency is reported as inconclusive [inhibitor, single point].
In the case of `COc1ccc(C(=O)N[C@H](C(=O)Nc2ccc(OC)nc2)C(C)C)cc1`, the “activity, negative = inhibition” value is reported as inactive: 3.18%.
In the case of `COc1ccc2oc(-c3ccco3)cc(=O)c2c1`, the Potency is reported as inconclusive [inhibitor, partial curve].
For `COc1ccc(C(=O)c2cc(C(C)=O)c(Nc3ccccc3)s2)cc1`, the Potency was inconclusive [inhibitor, single point].
In the case of `CCCc1[nH]nc2c1C(c1ccncc1)C(C#N)=C(N)O2` (stereo unspecified), the Potency is reported as active: 14.1 µM.
For `COc1ccc(Cl)cc1NC(=S)N1CCCC1`, the “activity, negative = inhibition” value was inactive: 5.74%.
With `Cc1ccc(S(=O)(=O)ON2C(=O)c3ccccc3C2=O)c(C)c1` the Potency was inconclusive [inhibitor, single point].
`Cc1c(O)ccc2c(CN3CCN(CCO)CC3)cc(=O)oc12` was tested, and the Potency was inconclusive [inhibitor, partial curve].
In the case of `CC(C)(C)c1ccc(COn2ccnc2)cc1`, the “activity, negative = inhibition” value is reported as inactive: -6.65%.
With `CC1CC(C)CN(CC(=O)N2CCCc3c2c(=O)oc2ccc(OCc4ccccc4)cc32)C1` (stereo unspecified) the Potency was inconclusive [inhibitor, single point].
With `O=c1cc(CN2CCCc3ccccc32)nc2sccn12` the Potency was inconclusive [inhibitor, single point].
With `CC1CCCCC1NC(=O)c1ccc2c(c1)[nH]c(=O)n2C1CCCC1` (stereo unspecified) the Potency was active: 14.1 µM.
For `CC(C)(C)c1ccc(CN2N=Nc3ccccc3S2(=O)=O)cc1`, the Potency was active: 22.4 µM.
In the case of `CN(C)c1ccc(C=NCCc2ccc(S(N)(=O)=O)cc2)cc1`, the Potency is reported as active: 0.708 µM.
In the case of `O=C(COC(=O)c1cc(-c2ccco2)nc2ccccc12)NCc1ccccc1`, the Potency is reported as inconclusive [inhibitor, partial curve].
`N#Cc1ccsc1NC(=O)c1ccccn1` was tested, and the Potency was inconclusive [inhibitor, single point].
For `O=C(CCSCCc1ccccn1)Nc1ccc(Br)cn1`, the “activity, negative = inhibition” value was inactive: -2.59%.
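For activity, negative = inhibition in this document: plate controls were no enzyme wells and a reference inhibitor.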
Potency is read from the fitted curve at half-maximal effect; tags tell the direction and shape of the fitted curve.
